Measurements: the supplement of paper PMC12217912
Some of the results follow. Sequences were assembled here from the parent chain. Inactive controls read about 0.05.

B1: TEV protease; numbered along this chain (parent)
chain: MGESLFKGPRDYNPISSSICHLTNESDGHTTSLYGIGFGPFIITNKHLFRRNNGTLVVQSLHGVFKVKDTTTLQQHLVDGRDMIIIRMPKDFPPFPQKLKFREPQREERICLVTTNFQTKSMSSMVSDTSCTFPSGDGIFWKHWIQTKDGQCGSPLVSTRDGFIVGIHSASNFTNTNNYFTSVPKNFMELLTNQEAQQWVSGWRLNADSVLWGGHKVFMVKPEEPFQPVKEATQL

Variants of: B1
Assay: raw area under fraction-flipped curve 0-4 h after induction (AUC4h, not background-subtracted), DNA-recorder readout of cleavage of the substrate (dimensionless); higher = more cleavage of the substrate by the protease variant
Conditions: temperature: 34 °C; time window: 0-4 h after rhamnose induction
Procedure: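 In vivo DNA recorder in E. coli TOP10(DE3) ΔrhaA at 34 °C. Each TEVp single-site mutant (parent TEVp 0) is paired with a single-site variant of the 7-mer TEVs (canonical ENLYFQ|S). The substrate sits between flexible linkers in a Bxb1-sfGFP-TEVs-SsrA fusion, so cleavage stabilises Bxb1 and speeds flipping of a recombination array, read by NGS. The value is the raw area under the fraction-flipped curve over 0-4 h after rhamnose induction (AUC4h), with ≥20 reads per time point. It is not background-subtracted; inactive controls average about 0.047.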
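Note: Bxb1 expression induced with 0.2% (w/v) L-rhamnose at OD600 near 0.5, cultures sampled hourly, flipped fraction per protease–substrate barcode pair counted by paired-end Illumina sequencing.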

Variant	area with substrate CNLYFQS	area with substrate DNLYFQS	area with substrate FNLYFQS	area with substrate GNLYFQS	area with substrate HNLYFQS	area with substrate INLYFQS	area with substrate LNLYFQS	area with substrate MNLYFQS	area with substrate NNLYFQS	area with substrate PNLYFQS	area with substrate RNLYFQS	area with substrate SNLYFQS	area with substrate TNLYFQS	area with substrate WNLYFQS	area with substrate KNLYFQS	area with substrate YNLYFQS	area with substrate VNLYFQS	area with substrate QNLYFQS
MGESLFKGPHDYNPISSSICHLTNESDGHTTSLYGIGFGPFIITNKHLFRRNNGTLVVQSLHGVFKVKDTTTLQQHLVDGRDMIIIRMPKDFPPFPQKLKFREPQREERICLVTTNFQTKSMSSMVSDTSCTFPSGDGIFWKHWIQTKDGQCGSPLVSTRDGFIVGIHSASNFTNTNNYFTSVPKNFMELLTNQEAQQWVSGWRLNADSVLWGGHKVFMVKPEEPFQPVKEATQL [R10H]	0.067	0.0679	0.0579	0.0608	0.082	0.102	0.0667	0.0509	0.0753	0.0602	0.0684	0.0564	0.0691	0.0591	–	–	–	–
MGESLFKGPQDYNPISSSICHLTNESDGHTTSLYGIGFGPFIITNKHLFRRNNGTLVVQSLHGVFKVKDTTTLQQHLVDGRDMIIIRMPKDFPPFPQKLKFREPQREERICLVTTNFQTKSMSSMVSDTSCTFPSGDGIFWKHWIQTKDGQCGSPLVSTRDGFIVGIHSASNFTNTNNYFTSVPKNFMELLTNQEAQQWVSGWRLNADSVLWGGHKVFMVKPEEPFQPVKEATQL [R10Q]	0.0644	0.1	0.0601	0.0721	0.0703	0.0679	0.0513	0.0673	–	0.0604	0.0543	–	0.0697	0.065	0.068	0.0563	–	–
MGESLFKGPRGYNPISSSICHLTNESDGHTTSLYGIGFGPFIITNKHLFRRNNGTLVVQSLHGVFKVKDTTTLQQHLVDGRDMIIIRMPKDFPPFPQKLKFREPQREERICLVTTNFQTKSMSSMVSDTSCTFPSGDGIFWKHWIQTKDGQCGSPLVSTRDGFIVGIHSASNFTNTNNYFTSVPKNFMELLTNQEAQQWVSGWRLNADSVLWGGHKVFMVKPEEPFQPVKEATQL [D11G]	0.0913	0.0895	–	–	0.0666	–	0.0579	0.0694	0.0657	0.0779	0.0566	–	0.0681	0.071	0.0698	0.066	0.0638	–
MGESLFKGPRHYNPISSSICHLTNESDGHTTSLYGIGFGPFIITNKHLFRRNNGTLVVQSLHGVFKVKDTTTLQQHLVDGRDMIIIRMPKDFPPFPQKLKFREPQREERICLVTTNFQTKSMSSMVSDTSCTFPSGDGIFWKHWIQTKDGQCGSPLVSTRDGFIVGIHSASNFTNTNNYFTSVPKNFMELLTNQEAQQWVSGWRLNADSVLWGGHKVFMVKPEEPFQPVKEATQL [D11H]	0.0999	0.0568	0.0579	–	0.0762	–	–	0.0619	–	0.0854	0.0634	0.0574	0.0458	0.0621	0.0687	0.0643	–	–
MGESLFKGPRNYNPISSSICHLTNESDGHTTSLYGIGFGPFIITNKHLFRRNNGTLVVQSLHGVFKVKDTTTLQQHLVDGRDMIIIRMPKDFPPFPQKLKFREPQREERICLVTTNFQTKSMSSMVSDTSCTFPSGDGIFWKHWIQTKDGQCGSPLVSTRDGFIVGIHSASNFTNTNNYFTSVPKNFMELLTNQEAQQWVSGWRLNADSVLWGGHKVFMVKPEEPFQPVKEATQL [D11N]	0.0702	0.074	0.0716	–	0.0686	0.086	0.0688	–	–	–	–	0.0424	0.0798	0.0605	0.0654	–	0.0753	0.0316
MGESLFKGPRYYNPISSSICHLTNESDGHTTSLYGIGFGPFIITNKHLFRRNNGTLVVQSLHGVFKVKDTTTLQQHLVDGRDMIIIRMPKDFPPFPQKLKFREPQREERICLVTTNFQTKSMSSMVSDTSCTFPSGDGIFWKHWIQTKDGQCGSPLVSTRDGFIVGIHSASNFTNTNNYFTSVPKNFMELLTNQEAQQWVSGWRLNADSVLWGGHKVFMVKPEEPFQPVKEATQL [D11Y]	0.0615	0.0795	0.0672	0.0799	0.0807	0.094	0.0638	0.0696	–	0.0652	0.0491	0.0587	0.0699	0.0586	0.0746	0.059	0.0708	0.0926
MGESLFKGPRDGNPISSSICHLTNESDGHTTSLYGIGFGPFIITNKHLFRRNNGTLVVQSLHGVFKVKDTTTLQQHLVDGRDMIIIRMPKDFPPFPQKLKFREPQREERICLVTTNFQTKSMSSMVSDTSCTFPSGDGIFWKHWIQTKDGQCGSPLVSTRDGFIVGIHSASNFTNTNNYFTSVPKNFMELLTNQEAQQWVSGWRLNADSVLWGGHKVFMVKPEEPFQPVKEATQL [Y12G]	0.0435	0.078	0.0693	–	0.0773	0.0651	0.0589	–	–	0.059	0.0611	0.0751	0.0628	0.0623	0.0742	0.0558	0.0678	0.0709
MGESLFKGPRDYYPISSSICHLTNESDGHTTSLYGIGFGPFIITNKHLFRRNNGTLVVQSLHGVFKVKDTTTLQQHLVDGRDMIIIRMPKDFPPFPQKLKFREPQREERICLVTTNFQTKSMSSMVSDTSCTFPSGDGIFWKHWIQTKDGQCGSPLVSTRDGFIVGIHSASNFTNTNNYFTSVPKNFMELLTNQEAQQWVSGWRLNADSVLWGGHKVFMVKPEEPFQPVKEATQL [N13Y]	0.0657	0.0937	–	0.0845	–	0.0584	0.0797	–	0.0887	0.0626	–	0.173	–	0.0397	–	–	0.0677	0.0565
MGESLFKGPRDYNDISSSICHLTNESDGHTTSLYGIGFGPFIITNKHLFRRNNGTLVVQSLHGVFKVKDTTTLQQHLVDGRDMIIIRMPKDFPPFPQKLKFREPQREERICLVTTNFQTKSMSSMVSDTSCTFPSGDGIFWKHWIQTKDGQCGSPLVSTRDGFIVGIHSASNFTNTNNYFTSVPKNFMELLTNQEAQQWVSGWRLNADSVLWGGHKVFMVKPEEPFQPVKEATQL [P14D]	0.0895	0.0765	0.0618	0.0633	0.0418	0.0596	0.0108	–	–	0.033	–	0.0704	0.0677	0.0503	0.0642	0.0641	–	–
